Tests used:
[1] = Tolerability of IV injection in tumor bearing mice; conditions: n=5, observed over 2 weeks
[2] = test system: FR-positive KB tumors; experiment: In vivo NIRF imaging of KB solid tumors; parameters: species or system nude mice; conditions: 24 hour time point, 2 nmole/mouse
Procedure: To induce solid tumors, 10^6 KB or HT1080 cells were injected subcutaneously into mammary fat pad and the lower abdomen of 30 nude mice (average weight 20 g). Within 7-17 days after implantations, each mouse developed 3-4 tumors of 1-14 mm (mean 4.1 mm) in size. To study tumor heterogeneity, tumors with different sizes were included in the experiments. For dual-tumor experiments, six mice were injected with 10^6 of KB and HT1080 cells on the ipsilateral and contralateral side respectively.
Thirty-six mice bearing KB and/or HT1080 tumors (n=60 each) were divided into three groups so that each group had 12 mice collectively having a total of 40 tumors; five mice collectively having a total of 18 KB tumors, five mice collectively having a total of 18 HT1080 tumors, and two mice with both KB and HT1080 tumors. […] NIRF imaging was performed before and 1, 4, 24, 48 hours after tail vein injection of the probes. In two animals from each group, NIRF images were also acquired daily up to 7 days (168 hours) to study the in vivo kinetics of the probe.

[3] = Absorbance maxima and extinction coefficients of fluorochrome dyes (spectrophotometer); assay type: physicochemical; conditions: solvent ethanol
Procedure: All of the new NIR fluorochrome dyes were purified twice by preparative HPLC, using a preparative HPLC instrument (Rainin, Woburn. Mass.) with a C18-RP preparative column (Vydec, Hesperia, Calif.) (flow rate=6 ml/min; eluant A, water with 0.1% TFA; eluant B, 90% of acetonitrile and 10% of eluant A; starting at 90% A for 5 min and then a linear gradient over 40 min to 50% A). The instrument's dual HPLC detector was set at 240 and 360 nm. The dyes were collected, and solvent was removed using a speed-vac concentrator (Savant, Holbrook, N.Y.). […]
About 20 mg of each fluorochrome dye was dissolved in 100 ml of deionized water. The absorbance was measured individually in three dilutions of the stock solution in deionized water or in 95% ethanol, using a Hitachi U-3000 spectrophotometer to determine the extinction coefficient. The fluorescence emission maxima and intensities of the dyes were obtained using a Hitachi F-4500 fluorophotometer, using dilute solutions in water and exciting at both the main absorption peak as well the short-wavelength shoulder of the main absorption peak. In the cases of NIR2, NIR4, NIR6, and NIR8, the quantum yields were calculated relative to a standard solution of the commercially available fluorochrome Cy5.5 (Amersham-Pharmacia, Piscataway, N.J.) with quantum yield of 0.29. […]

[4] = target: T1, FR (folate receptor) of KB cells (Homo sapiens, UniProt P15328); experiment: Competitive inhibition of 3H-folate binding in KB cells; conditions: 3H-folate 50 nM
T1 construct: endogenous in cells; host or cells: KB cells (human nasopharyngeal epidermoid carcinoma)
T1 sequence (P15328 25-234): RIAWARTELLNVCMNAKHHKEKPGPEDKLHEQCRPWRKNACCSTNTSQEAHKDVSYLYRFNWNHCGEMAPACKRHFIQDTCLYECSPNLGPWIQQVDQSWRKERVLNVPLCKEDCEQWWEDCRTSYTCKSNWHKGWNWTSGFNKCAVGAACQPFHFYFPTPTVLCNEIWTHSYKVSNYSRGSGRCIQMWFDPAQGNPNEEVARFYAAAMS
Procedure: To confirm receptor expression levels, cellular binding/internalization was determined using ^3H-folate. KB or HT1080 (10^6 cells) grown in 12-well plates were incubated at 37° C. for different times (1, 10, 30, 60, or 120 minutes) with 50 nM ^3H-folate (specific activity 34.5 Ci/mmol, American Radiolabeled Chemical Inc, St. Louis, Mo.). At the end of the incubation, cells were harvested using 0.1% Triton X-100 and the radioactivity (pmol/10^6 cells) was determined using a scintilltion counter.
The HT1080 and KB cell lines were first characterized in terms of their putative capability of ^3H-folate binding and uptake. KB and HT1080 tumor cells were incubated with ^3H-folate (50 nM) up to 120 minutes. Cellular binding and uptake was quantified by scintillation counting. […] At peak maximum 12 pmole of ^3H-folate /10^6 cells was observed under the chosen experimental conditions. […] Competition by the NMR2-folate probe was similar to that of unconjugated folic acid.

SMILES | tolerability of IV injection [1] | tumoral signal versus background [2] | λmax,abs [3] [nm] | bound 3H-folate in presence of competitor ([4]; competitor 50 nM (equimolar)) [pmole/10^6 cells] | decrease in bound 3H-folate ([4]; competitor 50 nM (equimolar)) [%] | binding of 3H-folate, % of its initial value ([4]; competitor 5000 nM) [%] | bound 3H-folate in presence of competitor ([4]; competitor 5000 nM) [pmole/10^6 cells]
CC[N+]1=C(C=CC=CC=C2N(CCCCS(=O)(=O)[O-])c3ccc(C(=O)O)cc3C2(C)C)C(C)(C)c2c1ccc1c(S(=O)(=O)[O-])cc(S(=O)(=O)[O-])cc21.[K+].[K+] [NIR2] | tolerated the IV injection of the compounds without any signs of physiological changes | did not result in appreciably higher signal than background | 667 | – | – | – | –
Nc1nc2ncc(CNc3ccc(C(=O)N[C@@H](CCC(=O)O)C(=O)O)cc3)nc2c(=O)[nH]1 [folic acid] | – | – | – | 4.97 | 60 | 15 | 1.86
